The entries are a selection whose mix differs from that of the whole data set. The list includes weakly bound sequences.
What was measured:
Assay in all cases: protein-binding microarray (PBM)
Conditions in all cases: PBM: ~300 nM protein, 6 mM HEPES pH 7.8, 80 mM KCl, 0.5 mM EDTA, 0.5 mM EGTA, 6% glycerol, 35 ng/ul poly-dIdC, 1% milk, 1 h, room temperature; Ap Aiptasia and Nv Nematostella (sea anemones) / Co Capsaspora / Aq Amphimedon (sponge) / Dm Drosophila / Hu human; RHD is the Rel homology domain; high values mean tight binding; most listed sequences are background and not binding sites; double strand, one strand shown
GST-Ap-NF-kB RHD = biological target: T1, GST-Ap-NF-kB RHD (UniProt A0A913YAJ5)
T1 sequence: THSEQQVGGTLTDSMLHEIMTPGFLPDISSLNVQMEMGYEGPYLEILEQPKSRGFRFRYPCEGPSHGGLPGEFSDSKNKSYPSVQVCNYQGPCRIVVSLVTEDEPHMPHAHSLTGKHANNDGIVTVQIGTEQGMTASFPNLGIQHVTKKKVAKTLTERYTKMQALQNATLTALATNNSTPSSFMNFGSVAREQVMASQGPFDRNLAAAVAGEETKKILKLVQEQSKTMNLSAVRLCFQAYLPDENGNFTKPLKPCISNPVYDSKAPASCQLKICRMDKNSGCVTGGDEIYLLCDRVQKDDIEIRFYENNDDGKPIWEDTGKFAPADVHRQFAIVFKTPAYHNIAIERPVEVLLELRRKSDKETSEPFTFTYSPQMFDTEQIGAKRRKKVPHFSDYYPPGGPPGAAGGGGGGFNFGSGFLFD

[1] = biological target: T2, GST-Nv-NF-kB (Cys allele) (UniProt E5G601)
T2 sequence: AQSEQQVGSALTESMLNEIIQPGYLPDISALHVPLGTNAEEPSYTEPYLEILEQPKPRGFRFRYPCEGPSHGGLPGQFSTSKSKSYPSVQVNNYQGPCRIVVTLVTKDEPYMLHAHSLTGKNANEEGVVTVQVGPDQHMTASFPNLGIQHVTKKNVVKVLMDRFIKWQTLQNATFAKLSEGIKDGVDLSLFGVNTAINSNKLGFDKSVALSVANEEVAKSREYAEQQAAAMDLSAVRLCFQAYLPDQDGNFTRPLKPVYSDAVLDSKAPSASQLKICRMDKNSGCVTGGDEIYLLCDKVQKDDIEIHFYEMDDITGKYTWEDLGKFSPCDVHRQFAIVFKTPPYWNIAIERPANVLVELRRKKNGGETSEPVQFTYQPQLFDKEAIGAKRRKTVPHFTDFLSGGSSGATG

GST-Co-NF-kB = biological target: T3, GST-Co-NF-kB (UniProt F1ARL5)
T3 sequence: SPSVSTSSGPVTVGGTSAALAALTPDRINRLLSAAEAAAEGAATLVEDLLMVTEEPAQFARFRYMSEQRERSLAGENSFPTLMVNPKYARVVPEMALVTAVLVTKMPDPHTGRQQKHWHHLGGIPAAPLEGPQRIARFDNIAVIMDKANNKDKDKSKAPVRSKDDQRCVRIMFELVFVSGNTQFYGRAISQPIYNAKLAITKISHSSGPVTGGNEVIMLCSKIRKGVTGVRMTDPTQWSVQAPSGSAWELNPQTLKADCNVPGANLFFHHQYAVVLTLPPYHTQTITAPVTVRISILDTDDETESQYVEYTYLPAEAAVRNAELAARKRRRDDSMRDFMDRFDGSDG

GST-Dm-Relish = biological target: T4, GST-Dm-Relish (UniProt Q94527)
T4 sequence: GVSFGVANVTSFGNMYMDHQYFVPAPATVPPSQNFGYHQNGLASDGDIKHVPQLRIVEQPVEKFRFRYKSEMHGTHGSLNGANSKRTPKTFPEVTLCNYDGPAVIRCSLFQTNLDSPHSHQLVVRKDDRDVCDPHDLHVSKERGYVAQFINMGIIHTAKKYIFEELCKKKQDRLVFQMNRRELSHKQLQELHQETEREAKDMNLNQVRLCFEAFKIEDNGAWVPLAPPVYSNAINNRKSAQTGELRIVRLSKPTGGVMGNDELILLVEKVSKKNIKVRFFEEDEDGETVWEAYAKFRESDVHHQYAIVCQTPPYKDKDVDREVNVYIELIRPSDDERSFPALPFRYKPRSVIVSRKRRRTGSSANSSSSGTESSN

GST-Aq-NF-kB = biological target: T5, GST-Aq-NF-kB (UniProt A9Y5G7)
T5 sequence: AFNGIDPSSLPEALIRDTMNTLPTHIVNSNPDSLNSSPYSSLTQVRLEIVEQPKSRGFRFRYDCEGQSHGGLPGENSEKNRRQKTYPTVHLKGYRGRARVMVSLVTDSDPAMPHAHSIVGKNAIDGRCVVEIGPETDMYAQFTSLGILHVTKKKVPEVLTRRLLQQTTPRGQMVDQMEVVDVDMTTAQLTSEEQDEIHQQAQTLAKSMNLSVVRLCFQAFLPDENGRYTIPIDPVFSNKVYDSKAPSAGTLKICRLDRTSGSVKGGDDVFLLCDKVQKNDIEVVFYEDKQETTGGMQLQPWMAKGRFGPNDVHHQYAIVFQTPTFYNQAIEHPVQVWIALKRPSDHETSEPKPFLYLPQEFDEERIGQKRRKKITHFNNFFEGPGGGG

Sequence | binding signal (GST-Ap-NF-kB RHD) | binding signal [1] | binding signal (GST-Co-NF-kB) | binding signal (GST-Dm-Relish) | binding signal (GST-Aq-NF-kB)
CCGATTAACATCACTAGAATTCCTGATGTTAATCGGGTCTTGATTCGCTTGACGCTGCTG | 0.0226 z-score | -0.106 z-score | 0.408 z-score | 0.645 z-score | 0.404 z-score
CCGATTAACATCATGCAAGATTGTGATGTTAATCGGGTCTTGATTCGCTTGACGCTGCTG | -0.00256 z-score | -0.212 z-score | -0.0589 z-score | 0.506 z-score | -0.407 z-score
CCGATTAACATCAGGGTCTATGATGATGTTAATCGGGTCTTGATTCGCTTGACGCTGCTG | -0.221 z-score | -0.0391 z-score | 0.0334 z-score | -0.0406 z-score | 0.251 z-score
CCGATTAACATCAGTCTAGATAGTGATGTTAATCGGGTCTTGATTCGCTTGACGCTGCTG | -0.148 z-score | -0.726 z-score | -0.185 z-score | -0.508 z-score | -0.774 z-score
CCGATTAACATCAGGTGTGTGCCTGATGTTAATCGGGTCTTGATTCGCTTGACGCTGCTG | -0.398 z-score | -0.486 z-score | -1.25 z-score | -0.828 z-score | -0.384 z-score
CCGATTAACATCAACCCACCAGGTGATGTTAATCGGGTCTTGATTCGCTTGACGCTGCTG | 0.474 z-score | -0.167 z-score | 0.031 z-score | 0.283 z-score | 0.147 z-score
CCGATTAACATCATAGGGATGCTTGATGTTAATCGGGTCTTGATTCGCTTGACGCTGCTG | 0.649 z-score | 0.592 z-score | 0.267 z-score | -0.551 z-score | 0.514 z-score
CCGATTAACATCAGTTCCAACAATGATGTTAATCGGGTCTTGATTCGCTTGACGCTGCTG | -0.197 z-score | -0.474 z-score | -0.343 z-score | -1.06 z-score | -0.569 z-score
CCGATTAACATCAACTCACCGTCTGATGTTAATCGGGTCTTGATTCGCTTGACGCTGCTG | 0.23 z-score | 0.118 z-score | -0.319 z-score | 0.0223 z-score | -0.381 z-score
CCGATTAACATCAGGAAGATTCCTGATGTTAATCGGGTCTTGATTCGCTTGACGCTGCTG | -0.371 z-score | -0.146 z-score | -1.33 z-score | 0.0334 z-score | 0.695 z-score
CCGATTAACATCAGCATCAAGCATGATGTTAATCGGGTCTTGATTCGCTTGACGCTGCTG | -0.665 z-score | -0.361 z-score | -1.22 z-score | -0.574 z-score | -0.6 z-score
CCGATTAACATCATAGCCCACCTTGATGTTAATCGGGTCTTGATTCGCTTGACGCTGCTG | 0.168 z-score | -0.819 z-score | -0.132 z-score | -0.906 z-score | -0.119 z-score
CCGATTAACATCAGTCATGTTTCTGATGTTAATCGGGTCTTGATTCGCTTGACGCTGCTG | -0.289 z-score | -0.124 z-score | -0.251 z-score | -0.782 z-score | -0.34 z-score
CCGATTAACATCAAGCTTTCATCTGATGTTAATCGGGTCTTGATTCGCTTGACGCTGCTG | -0.135 z-score | 0.0752 z-score | -1.39 z-score | -0.226 z-score | -0.577 z-score
CCGATTAACATCACTGCTTAAGATGATGTTAATCGGGTCTTGATTCGCTTGACGCTGCTG | -0.165 z-score | -0.657 z-score | 0.186 z-score | -0.72 z-score | -0.554 z-score
CCGATTAACATCACGGATAATCCTGATGTTAATCGGGTCTTGATTCGCTTGACGCTGCTG | 0.19 z-score | -0.197 z-score | -0.175 z-score | -0.158 z-score | 0.754 z-score
CCGATTAACATCACCTAGGACGCTGATGTTAATCGGGTCTTGATTCGCTTGACGCTGCTG | -0.464 z-score | -0.577 z-score | 0.0435 z-score | -0.289 z-score | 0.272 z-score
CCGATTAACATCAACCCTTGAGATGATGTTAATCGGGTCTTGATTCGCTTGACGCTGCTG | 0.371 z-score | -0.404 z-score | -0.174 z-score | -0.678 z-score | -0.254 z-score
CCGATTAACATCAGTAGGTGAAGTGATGTTAATCGGGTCTTGATTCGCTTGACGCTGCTG | 0.456 z-score | 0.452 z-score | 1.02 z-score | 0.093 z-score | 0.0881 z-score
CCGATTAACATCACAGAAATGGATGATGTTAATCGGGTCTTGATTCGCTTGACGCTGCTG | -0.201 z-score | 0.137 z-score | 0.357 z-score | 0.372 z-score | -0.166 z-score
CCGATTAACATCACCAAATTTCCTGATGTTAATCGGGTCTTGATTCGCTTGACGCTGCTG | 0.457 z-score | 0.0257 z-score | 0.35 z-score | 0.599 z-score | 0.745 z-score
CCGATTAACATCACACTGAACTTTGATGTTAATCGGGTCTTGATTCGCTTGACGCTGCTG | -0.00821 z-score | -0.428 z-score | 0.256 z-score | -0.222 z-score | -0.356 z-score
CCGATTAACATCAGATGCACACATGATGTTAATCGGGTCTTGATTCGCTTGACGCTGCTG | -0.0677 z-score | -0.243 z-score | -0.00417 z-score | -0.236 z-score | -0.263 z-score
CCGATTAACATCATTCCACCAGGTGATGTTAATCGGGTCTTGATTCGCTTGACGCTGCTG | 0.604 z-score | -0.557 z-score | 0.492 z-score | 0.778 z-score | 0.389 z-score
CCGATTAACATCAGAAATTCCTATGATGTTAATCGGGTCTTGATTCGCTTGACGCTGCTG | 0.111 z-score | -0.669 z-score | 0.235 z-score | 0.303 z-score | 0.696 z-score
CCGATTAACATCAGCTCTCCGGATGATGTTAATCGGGTCTTGATTCGCTTGACGCTGCTG | -0.758 z-score | -0.388 z-score | -0.839 z-score | -1.08 z-score | -0.631 z-score
CCGATTAACATCAGCAGTGCTGATGATGTTAATCGGGTCTTGATTCGCTTGACGCTGCTG | -0.547 z-score | 0.0849 z-score | -1.01 z-score | -0.671 z-score | -0.591 z-score
CCGATTAACATCAGGAAGTTTTATGATGTTAATCGGGTCTTGATTCGCTTGACGCTGCTG | -0.552 z-score | 0.14 z-score | -0.249 z-score | 0.764 z-score | 0.799 z-score
